According to the supplement of paper PMC10126150:
Values marked as one replicate rest on one cluster of the flow cell; about a third of the high ones do not repeat.

Each sequence was assayed on ATP (assay: switch fluorescence ratio, 500 uM ATP over buffer (Cy3 cluster intensity, sum of 5 cycles each) (fold (ratio)); higher = stronger signal-on switching upon ATP binding; sequences stand for … in TCGTCGGCAGCGTCAGATGTGTATAAGAGACAGTTTTTTTTTTTTTTTTTTTTTTTTT…TC). Conditions: aptamer strand: ATP DNA aptamer (quencher-CACCTGGGGGAGTATTGCGGAGGAAGG + anchor), 100 nM annealed; ATP concentration: 500 uM; one replicate.
How it was run: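 Five buffer/ATP imaging cycles were run on Cy3-labelled switching-strand clusters on a modified Illumina MiSeq flow-cell, with NaOH stripping and re-annealing between cycles. In each cycle, clusters annealed to 100 nM quencher-labelled ATP aptamer were imaged in selection buffer, then after 15 min with 500 uM ATP at 22 °C. Per cluster, the fluorescence ratio is summed target-cycle over summed buffer-cycle Cy3 intensity, averaged per switch-domain sequence. Only clusters within 100-1000 RFU were kept.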
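Also: ATP exposure 15 min at 22 °C before imaging.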

Row | Sequence | switch fluorescence ratio
1 | CGGGCCATCT | 1.06
2 | CGGGCGATTG | 0.968
3 | CGGGCTAATG | 1.01
4 | CGGGGAGAGA | 0.998
5 | CGGGGAGCAC | 1.05
6 | CGGGGAGTA | 1.02
7 | CGGGGCAGGC | 0.785
8 | CGGGGCCAGA | 1.03
9 | CGGGGGACTC | 1.01
10 | CGGGGTCAAG | 0.986
11 | CGGGGTCCGG | 0.989
12 | CGGGGTCGTC | 1
13 | CGGGGTCTTT | 0.968
14 | CGGGGTTGA | 1.04
15 | CGGGTAGATC | 1.05
16 | CGGGTATTG | 0.981
17 | CGGGTCAGTA | 1.01
18 | CGGGTCGCTG | 1.02
19 | CGGGTGCTAG | 1.01
20 | CGGGTTATAG | 0.995
21 | CGGGTTGCT | 1.01
22 | CGGGTTTCCA | 1
23 | CGGTAAAAG | 0.99
24 | CGGTACAGAG | 0.99
25 | CGGTACCGGT | 1.05
26 | CGGTACTAAC | 1.14

Row | Sequence | switch fluorescence ratio
27 | CGGTACTTAA | 1.03
28 | CGGTAGATTA | 1.02
29 | CGGTAGCATA | 1.75
30 | CGGTAGGAG | 1.01
31 | CGGTATAATG | 0.989
32 | CGGTATAGTG | 0.996
33 | CGGTATGAGT | 1
34 | CGGTATTTGG | 1.01
35 | CGGTCACAGC | 0.978
36 | CGGTCACTTA | 1.04
37 | CGGTCAGGCC | 0.985
38 | CGGTCCATAA | 1.04
39 | CGGTCCTACG | 1.1
40 | CGGTCGATAA | 1.37
41 | CGGTCTACAC | 1.03
42 | CGGTCTACTA | 1.03
43 | CGGTCTGGCG | 0.965
44 | CGGTCTTAGC | 0.98
45 | CGGTGACAGT | 0.985
46 | CGGTGAGACC | 0.999
47 | CGGTGATAGG | 1.04
48 | CGGTGCCTGC | 1.03
49 | CGGTGTACTT | 0.978
50 | CGGTGTCCCT | 1.01
51 | CGGTGTCTCT | 0.97
52 | CGGTGTTCGC | 0.962

Row | Sequence | switch fluorescence ratio
53 | CGGTTAAGTC | 0.952
54 | CGGTTAGCTC | 0.982
55 | CGGTTAGCTG | 0.946
56 | CGGTTAGGGC | 1.05
57 | CGGTTATAGC | 1.03
58 | CGGTTATCGT | 1.03
59 | CGGTTCGCAA | 2.54
60 | CGGTTCGCCG | 0.996
61 | CGGTTCTAGC | 0.967
62 | CGGTTCTTGG | 0.983
63 | CGGTTGGA | 1.02
64 | CGGTTGGTCA | 0.971
65 | CGGTTGTAGA | 1.04
66 | CGGTTTCTAA | 0.977
67 | CGGTTTGATA | 0.989
68 | CGTAACAACA | 1.01
69 | CGTAACCGT | 0.991
70 | CGTAACGATC | 1.05
71 | CGTAACGGA | 0.973
72 | CGTAACTTCA | 1.06
73 | CGTAAGACGC | 1.06
74 | CGTAAGATTC | 0.996
75 | CGTAAGGTTG | 0.945
76 | CGTAATGGTT | 0.992
77 | CGTACAATAT | 1.89
78 | CGTACACATA | 1.07

Row | Sequence | switch fluorescence ratio
79 | CGTACAGTGT | 0.978
80 | CGTACCCAAT | 1.3
81 | CGTACTTTTG | 1.01
82 | CGTAGAATCG | 1
83 | CGTAGCCGAA | 1.02
84 | CGTAGCTTG | 1.05
85 | CGTAGTCGGG | 1.01
86 | CGTAGTGACA | 0.982
87 | CGTAGTGATG | 1.02
88 | CGTAGTGGTA | 1.06
89 | CGTATACGC | 1.12
90 | CGTATAGGGG | 0.939
91 | CGTATATCTA | 1.01
92 | CGTATCGAGC | 0.987
93 | CGTATCTTA | 0.964
94 | CGTATGGGCT | 0.972
95 | CGTATGTGCA | 0.987
96 | CGTCAACGAG | 1.02
97 | CGTCAAGTTT | 0.994
98 | CGTCAATCCG | 1
99 | CGTCACGGCG | 1.03
100 | CGTCAGATGG | 1.04
101 | CGTCAGGTGA | 2.48
102 | CGTCATCAAT | 1.49
103 | CGTCATTATG | 0.996
104 | CGTCCAATTG | 1.08

Row | Sequence | switch fluorescence ratio
105 | CGTCCAGAAC | 1.09
106 | CGTCCAGTAG | 1.13
107 | CGTCCCATTA | 1.54
108 | CGTCCCGAGA | 1.02
109 | CGTCCTAGAA | 1.01
110 | CGTCCTAGCG | 1.02
111 | CGTCGACAGC | 0.997
112 | CGTCGAGTGG | 1.03
113 | CGTCGGCAGT | 1.43
114 | CGTCGGGCAC | 1.11
115 | CGTCGTTCAT | 0.948
116 | CGTCGTTTTC | 1.03
117 | CGTCTAAGGC | 1.1
118 | CGTCTAGCT | 1.02
119 | CGTCTATCCA | 0.978
120 | CGTCTCGCAC | 2.96
121 | CGTCTGAA | 0.959
122 | CGTCTGGATT | 1.12
123 | CGTCTGTGCT | 1.02
124 | CGTCTTGTGA | 0.973
125 | CGTGACATAA | 1.02
126 | CGTGACCAGC | 1.03
127 | CGTGAGCTTT | 1.03
128 | CGTGAGGCCC | 0.984
129 | CGTGAGGGGA | 0.998
130 | CGTGATCGGG | 1.03

Row | Sequence | switch fluorescence ratio
131 | CGTGATGTAC | 1.36
132 | CGTGCAGTTA | 0.996
133 | CGTGCATGTG | 0.993
134 | CGTGCCAAA | 0.987
135 | CGTGCCGGAA | 1.03
136 | CGTGCCGGGC | 1.01
137 | CGTGCGAGTA | 1.01
138 | CGTGCGATCC | 1.47
139 | CGTGCGTAA | 1.77
140 | CGTGCTTA | 1.01
141 | CGTGGCCATT | 1.01
142 | CGTGGCGATC | 1.02
143 | CGTGGGCGTA | 0.97
144 | CGTGGTTAAT | 0.963
145 | CGTGTACATA | 1.01
146 | CGTGTACCCT | 1.03
147 | CGTGTCAATG | 0.972
148 | CGTGTCGAC | 1.02
149 | CGTGTCTTAT | 0.982
150 | CGTGTTCAGC | 1.06
151 | CGTGTTGGGA | 1.01
152 | CGTGTTTCC | 1.1
153 | CGTTAATAGA | 1.03
154 | CGTTACAAAG | 1.03
155 | CGTTACTATT | 1.02
156 | CGTTATCGTA | 1.02

Row | Sequence | switch fluorescence ratio
157 | CGTTATCTTT | 0.981
158 | CGTTATGTGC | 0.992
159 | CGTTATTGCC | 1.04
160 | CGTTCACATG | 1.03
161 | CGTTCAGCGT | 0.994
162 | CGTTCCTATT | 0.978
163 | CGTTCGAGGC | 1.03
164 | CGTTCGCCCG | 0.954
165 | CGTTCGCGA | 2.78
166 | CGTTCGTATG | 1
167 | CGTTCTACCA | 0.974
168 | CGTTCTGCCT | 0.967
169 | CGTTGAAACG | 0.977
170 | CGTTGACGTG | 1.02
171 | CGTTGAGCG | 0.957
172 | CGTTGATAG | 0.942
173 | CGTTGCCCTG | 0.943
174 | CGTTGCCGCC | 1.03
175 | CGTTGGATTT | 1.01
176 | CGTTGGTTCG | 1.02
177 | CGTTGTCTAC | 1.02
178 | CGTTTAATGA | 1.02
179 | CGTTTAGATT | 0.977
180 | CGTTTATAAG | 0.969
181 | CGTTTCATTC | 0.983
182 | CGTTTCTTCT | 0.981

Row | Sequence | switch fluorescence ratio
183 | CGTTTGCAAG | 1.05
184 | CGTTTGCGGC | 1.05
185 | CGTTTGTGGT | 0.98
186 | CGTTTTACA | 1.03
187 | CGTTTTACTA | 1.05
188 | CGTTTTAGGG | 0.977
189 | CTAAAAATTG | 0.919
190 | CTAAAGGTAT | 1
191 | CTAACATCCC | 1.02
192 | CTAACCACGA | 1.03
193 | CTAACCCTTA | 1.03
194 | CTAACCTGAG | 1.83
195 | CTAACGCACA | 1.4
196 | CTAACGCTCG | 0.987
197 | CTAACGTACT | 1.8
198 | CTAACGTGG | 0.972
199 | CTAACGTTAG | 0.999
200 | CTAACTCGTG | 0.916
201 | CTAAGCATGG | 1.16
